Screen size: about 48,000 compounds; about 450 (0.94%) were called active. Not shown: some 19% with an inconclusive outcome. Calls follow the shape of the dose curve; as a rule, active = well fitted inhibition curve with a large enough effect; inconclusive = small, poorly fitted or top-dose-only effect; inactive = no such curve, though single readings can be large or run the other way. Some of the results follow.

A short description of the test: Primary qHTS for Identification of Small Molecule Inhibitors of Huntingtin Promoter Activity. Also: nearly all actives have a fitted effect of over 50% in size. Particulars: HEK293 HTT promoter firefly luciferase reporter (activity 0% = vehicle and -100% = no light), 24 h; series mostly up to 57.5 µM; activity change, negative = inhibition: at the top concentration. In short, it runs like this: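 HEK293 cells carrying firefly luciferase reporters were seeded at 2,500 per well in Opti-MEM and cultured for 24 h. They were then treated with compounds at up to 57.5 uM final for 24 h at 37 degrees C before Dual-Glo luminescence readout.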
For `CCc1ccccc1NC(=O)CSc1ncc2c(n1)-c1ccccc1N(C)S2(=O)=O`, the “activity change, negative = inhibition” value is inactive: -29.2%.
For the molecule `Cc1cccc(N2CCN(C(=O)Cc3c(C(=O)O)c(C)cn3C)CC2C)c1` (stereo not drawn), the “activity change, negative = inhibition” value is inactive: -21.2%.
`COc1ccc(N2CCN(C(=O)C3CCCN(S(=O)(=O)c4ccc5c(c4)oc(=O)n5C)C3)CC2)cc1` (stereo not drawn): the “activity change, negative = inhibition” value was inactive: -18.3%.
With `COC(=O)c1c(NC(=O)COc2ccc(C(C)C)cc2)sc2c1CCCC2` the figure was inactive: 10.6%.
Turning to `COc1ccc(C2CC(=O)Nc3c2c(C)nn3-c2nc(C)cc(C)n2)c(OC)c1OC` (stereo not drawn), the “activity change, negative = inhibition” value is inactive: -5.54%.
As for `COc1ccccc1CCNC(=O)C1(c2cccs2)CCOCC1`, the “activity change, negative = inhibition” value was inactive: 5.71%.
Take `CCc1cccc(NC(=O)CCn2nc(C)cc2C)c1`: the “activity change, negative = inhibition” value is inactive: -4.65%.
Take `CCC(=O)NCCc1sc2nc(-c3ccc(OC)cc3)nn2c1C`: the “activity change, negative = inhibition” value is inactive: 8.5%.
On to `CCCS(=O)(=O)Nc1cccc(-c2cn3ccsc3n2)c1`, for which the “activity change, negative = inhibition” value is inactive: 9.77%.
For the molecule `COc1ccc(CCNC(=O)c2ccc3nc(CCc4ccccc4)oc3c2)cc1OC`, the “activity change, negative = inhibition” value is inactive: -24.7%.
Turning to `CCCCc1cc2ccccc2c(OCCN(C)C)n1`, the “activity change, negative = inhibition” value was inactive: -8.6%.
Regarding `COc1ccc(OC)c(NC(=O)c2nnn(CC(=O)Nc3ccc(C(C)C)cc3)c2N)c1`, the “activity change, negative = inhibition” value is inactive: -22.3%.
As to `COc1ccc(NC(=O)Cn2cnc3c(nc4n3CCCCC4)c2=O)cc1Cl`, the “activity change, negative = inhibition” value is inactive: -9.95%.
The same measure for `Cc1ccc(N2C(=O)CSC23C(=O)N(CC(=O)NCCc2ccccc2)c2ccccc23)cc1` (stereo not drawn): inactive: -12.5%; for `CCC1CN(C(=O)N2CCC(C(=O)NCc3cccs3)CC2)c2ccccc2O1` (stereo not drawn): inactive: -24.8%; for `Cc1ccc(NC(=O)c2ccc(-c3ccccc3)s2)cc1`: inactive: 18.2%.
For `COc1cccc(CNCc2c(C(=O)O)n(Cc3ccc(C)cc3)c3cc(C)ccc23)c1OC`, the “activity change, negative = inhibition” value is inactive: -19.6%.
`CC(=O)c1ccc(NC(=O)c2sc(-n3nc(C)c(Cc4ccc5c(c4)OCO5)c3C)nc2C)cc1`: the “activity change, negative = inhibition” value was inactive: 5.74%.
With `COc1ccc(N2CCN(C(=O)c3noc4c3CCCCC4)CC2)cc1` the figure was inactive: 8.68%; with `O=C(NCCc1nc2ccccc2n1Cc1ccc(Cl)cc1)c1ccccc1`, inactive: -25.8%; with `CCOC(=O)c1ccccc1NC(=O)c1sc2nc(-c3ccc(F)cc3)cn2c1C`, inactive: -6.73%.
Regarding `Cc1nnc(NC(=O)CSc2nc3c([nH]c4ccccc43)c(=O)n2-c2cccc(Cl)c2)s1`, the “activity change, negative = inhibition” value is inactive: -13.8%.
Regarding `COc1ccc(-c2nc3ccccc3o2)cc1NC(=O)c1cc(Br)ccc1OC`, the “activity change, negative = inhibition” value was inactive: -1.54%.
The same measure for `COc1ccc(C)cc1NC(=O)NCCn1nnc2cc(S(=O)(=O)N(C)C)ccc21`: inactive: -23.7%; for `Cc1ccc(C(=O)OCc2cc(=O)n3nc(CC(C)C)sc3n2)cc1`: inactive: -16.7%.
For `COc1ccc(CCNC(=O)c2cnc3sc(N4CCCCCC4)nn3c2=O)cc1`, the “activity change, negative = inhibition” value is inactive: -24.2%.
Consider `CC(C(=O)O)c1ccc2c(c1)[nH]c1ccc(Cl)cc12` (stereo not drawn), for which the “activity change, negative = inhibition” value is inactive: 0.114%.
Consider `Cc1ccc2occ(CC(=O)Nc3c(C)cccc3C)c2c1`, for which the “activity change, negative = inhibition” value is inactive: -20.7%.

For the origin of these results see PubChem BioAssay AID1508623 (National Center for Advancing Translational Sciences (NCATS), 2021).
